Measured values taken from PMC13034042.
No constants are given. Whether binding was seen depends on the method and setting. For part of these data: Binding seen in cells or lysates may run through a third protein. Some results given as binding are weak or reduced against the parent protein; the word gives no strength. For part of these data: Where a sequence is shown, tags or fusion partners need not be part of it.

Sequences of proteins named here, by UniProt entry; tags and fusion partners are left off. A change or cut given only in a name is not applied to a line headed by its entry.
UniProt P0CX44: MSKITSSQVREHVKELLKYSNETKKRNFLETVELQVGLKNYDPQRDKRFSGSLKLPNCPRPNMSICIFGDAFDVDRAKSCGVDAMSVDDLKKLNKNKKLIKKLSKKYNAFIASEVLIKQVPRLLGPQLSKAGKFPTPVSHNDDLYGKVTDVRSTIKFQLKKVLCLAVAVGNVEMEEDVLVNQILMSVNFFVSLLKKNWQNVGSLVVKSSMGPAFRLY

What was measured:
[1] = biological target: Gsp1.Q71L, Y2H bait (S. cerevisiae) (UniProt P32835); test: two-hybrid; Y2H in reporter strain PJ69-4A; G4BD bait and G4AD prey from monocopy plasmids (ADH1 promoter); growth on SC-HLT (HIS3) and SC-ALT (ADE2) plates, 3 days at 30°C
[2] = biological target: T1, Bcl1.N366-(His)6 (S. cerevisiae) (UniProt P53962); test: pull-down; Rpl1b, Acl1-Flag and Bcl1.N366-(His)6 co-expressed in E. coli Rosetta(DE3); consecutive Ni-NTA and anti-FLAG affinity purification, FLAG peptide eluate analysed by Coomassie staining and western blotting
T1 sequence: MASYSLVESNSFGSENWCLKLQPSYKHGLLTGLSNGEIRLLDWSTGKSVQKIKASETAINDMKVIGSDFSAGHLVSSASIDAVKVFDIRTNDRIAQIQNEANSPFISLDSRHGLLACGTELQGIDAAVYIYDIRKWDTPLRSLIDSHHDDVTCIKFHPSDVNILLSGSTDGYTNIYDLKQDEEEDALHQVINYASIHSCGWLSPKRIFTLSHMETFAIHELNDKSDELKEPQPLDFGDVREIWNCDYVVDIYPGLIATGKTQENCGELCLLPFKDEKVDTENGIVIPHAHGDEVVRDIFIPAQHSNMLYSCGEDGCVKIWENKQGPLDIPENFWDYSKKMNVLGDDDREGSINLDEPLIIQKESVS

[3] = biological target: T1, Bcl1.N366-(His)6 (S. cerevisiae); test: pull-down; two proteins co-expressed from pETDuet-1 in E. coli Rosetta(DE3); Ni-NTA affinity purification of the (His)6-tagged bait from the soluble extract (50 mM Tris-HCl pH 7.5, 200 mM NaCl, 1.5 mM MgCl2, 5% glycerol, 0.1% NP-40), imidazole eluate analysed by Coomassie staining and western blotting
[4] = biological target: T2, Rpl5, Y2H bait whose G4BD is not N-terminal (S. cerevisiae) (UniProt P26321); test: two-hybrid; Y2H in reporter strain PJ69-4A; G4BD bait and G4AD prey from monocopy plasmids (ADH1 promoter); growth on SC-HLT (HIS3) and SC-ALT (ADE2) plates, 3 days at 30°C
T2 sequence: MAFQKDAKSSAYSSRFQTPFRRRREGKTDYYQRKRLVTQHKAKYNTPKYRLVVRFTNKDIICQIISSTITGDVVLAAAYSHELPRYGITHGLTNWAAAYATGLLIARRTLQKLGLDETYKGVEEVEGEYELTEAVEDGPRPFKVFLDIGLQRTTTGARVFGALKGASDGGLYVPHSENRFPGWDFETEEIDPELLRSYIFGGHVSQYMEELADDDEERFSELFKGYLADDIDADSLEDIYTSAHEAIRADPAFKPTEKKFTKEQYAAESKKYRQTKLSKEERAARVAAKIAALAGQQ

[5] = biological target: T3, Bcl1.364C, Y2H fusion (S. cerevisiae) (UniProt P53962); test: as above
T3 sequence: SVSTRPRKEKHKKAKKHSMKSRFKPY

[6] = biological target: T4, Rpl38, Y2H bait (S. cerevisiae) (UniProt P49167); test: as above
T4 sequence: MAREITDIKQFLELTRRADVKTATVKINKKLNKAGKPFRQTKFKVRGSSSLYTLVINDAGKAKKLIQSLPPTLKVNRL

[7] = biological target: T5, Bcl1.323C, Y2H fusion (S. cerevisiae) (UniProt P53962); test: as above
T5 sequence: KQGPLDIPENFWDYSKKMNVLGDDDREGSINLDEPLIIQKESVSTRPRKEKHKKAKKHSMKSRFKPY

[8] = biological target: Rpl1 K195/K196 to alanine variant, Y2H fusion (S. cerevisiae) (UniProt P0CX44); test: as above
[9] = biological target: Rpl1 K195/K196 to glutamate variant, Y2H fusion (S. cerevisiae) (UniProt P0CX44); test: as above
[10] = biological target: Rpl1 R45/K47/R48 to alanine variant, Y2H fusion (S. cerevisiae) (UniProt P0CX44); test: as above
[11] = biological target: Rpl1 R45/K47/R48 to glutamate variant, Y2H fusion (S. cerevisiae) (UniProt P0CX44); test: as above
[12] = biological target: Rpl1b, full length, Y2H fusion (S. cerevisiae) (UniProt P0CX44); test: as above

Kap114, full length, Y2H prey (from UniProt P53067 1-1004)
binding [1]: binds weakly

Rpl1b (untagged, E. coli) (from UniProt P0CX44 1-217)
binding [2]: binds | binding [3]: binds

B1: Syo1, Y2H prey (protein, UniProt Q07395 1-620)
chain: MGRSKKRSRASSSRLNPLRKAGSNDNNKDTNVVNKKLQPLLQNLSSVVPNDRSIALSSISVLCEDAHMRQLLLKEKLVPIILNKLLNDSNSDIVVESFGLLRNLSLEEGYDVSIYLWRSDIWTSITSNFGRIVESLSALQAAEQQPQLKPAGKSKIESKRLLFDFADNLLSLVVALSNGSDDILNEILTESKINEIFQVISQLLKYGVEKLPINLFNTTLDLIYDLSSESFEFIDHVSNNELLSQFLNGLSPALHPQANELTKVLIEGIHCQFLDMKITYDQCNKMIHSVCHSINNIDPVQLVNDINNPVEIGPATSKDESSKVITKIKDYNAKRNESMIKLQSIEIAIDLITAIIEIVASKYESPESQEVAIPEELINTLTNFLPHVFMILKDTFTSRILIGWNNLIWLFVSLSLTELSGELLTTLWSYVTQLDSQDDLSIKIGRMGCIWALLKLIFPDGAFESENRALINVQMLNNSGFARGIIEEFQNNNDLELQQKCINVLSTYAMIQGQIDANKEIGQFFIQTLTQLNVRPEILIEMTNSLFQIYGDASYDYNEPIFVRGGFLSILKDQVVPNLRQQFKMVDKNKNPELKERCHDCFTTLDSFIHYKMNENSTNQ
binding [4]: binds

B2: Kap121.302C, Y2H prey (domain or fragment, UniProt P32337 302-1089)
chain: SNQNYGQTLVMVTLIMMTEVSIDDDDAAEWIESDDTDDEEEVTYDHARQALDRVALKLGGEYLAAPLFQYLQQMITSTEWRERFAAMMALSSAAEGCADVLIGEIPKILDMVIPLINDPHPRVQYGCCNVLGQISTDFSPFIQRTAHDRILPALISKLTSECTSRVQTHAAAALVNFSEFASKDILEPYLDSLLTNLLVLLQSNKLYVQEQALTTIAFIAEAAKNKFIKYYDTLMPLLLNVLKVNNKDNSVLKGKCMECATLIGFAVGKEKFHEHSQELISILVALQNSDIDEDDALRSYLEQSWSRICRILGDDFVPLLPIVIPPLLITAKATQDVGLIEEEEAANFQQYPDWDVVQVQGKHIAIHTSVLDDKVSAMELLQSYATLLRGQFAVYVKEVMEEIALPSLDFYLHDGVRAAGATLIPILLSCLLAATGTQNEELVLLWHKASSKLIGGLMSEPMPEITQVYHNSLVNGIKVMGDNCLSEDQLAAFTKGVSANLTDTYERMQDRHGDGDEYNENIDEEEDFTDEDLLDEINKSIAAVLKTTNGHYLKNLENIWPMINTFLLDNEPILVIFALVVIGDLIQYGGEQTASMKNAFIPKVTECLISPDARIRQAASYIIGVCAQYAPSTYADVCIPTLDTLVQIVDFPGSKLEENRSSTENASAAIAKILYAYNSNIPNVDTYTANWFKTLPTITDKEAASFNYQFLSQLIENNSPIVCAQSNISAVVDSVIQALNERSLTEREGQTVISSVKKLLGFLPSSDAMAIFNRYPADIMEKVHKWFA
binding [5]: no binding | binding [6]: binds | binding [7]: binds

B3: Bcl1, full length, Y2H fusion (protein, UniProt P53962 1-389)
chain: MASYSLVESNSFGSENWCLKLQPSYKHGLLTGLSNGEIRLLDWSTGKSVQKIKASETAINDMKVIGSDFSAGHLVSSASIDAVKVFDIRTNDRIAQIQNEANSPFISLDSRHGLLACGTELQGIDAAVYIYDIRKWDTPLRSLIDSHHDDVTCIKFHPSDVNILLSGSTDGYTNIYDLKQDEEEDALHQVINYASIHSCGWLSPKRIFTLSHMETFAIHELNDKSDELKEPQPLDFGDVREIWNCDYVVDIYPGLIATGKTQENCGELCLLPFKDEKVDTENGIVIPHAHGDEVVRDIFIPAQHSNMLYSCGEDGCVKIWENKQGPLDIPENFWDYSKKMNVLGDDDREGSINLDEPLIIQKESVSTRPRKEKHKKAKKHSMKSRFKPY
binding [8]: no binding | binding [9]: no binding | binding [10]: no binding | binding [11]: no binding | binding [12]: binds
